Experimental data: patent publication US9101609B2, “CD37 immunotherapeutic and combination with bifunctional chemotherapeutic thereof” (EMERGENT PRODUCT DEVELOPMENT SEATTLE, LLC, priority 2008, dated 2015)

Biological target: T1, CD37 (Homo sapiens, UniProt P11049)
T1 sequence (P11049 1-281): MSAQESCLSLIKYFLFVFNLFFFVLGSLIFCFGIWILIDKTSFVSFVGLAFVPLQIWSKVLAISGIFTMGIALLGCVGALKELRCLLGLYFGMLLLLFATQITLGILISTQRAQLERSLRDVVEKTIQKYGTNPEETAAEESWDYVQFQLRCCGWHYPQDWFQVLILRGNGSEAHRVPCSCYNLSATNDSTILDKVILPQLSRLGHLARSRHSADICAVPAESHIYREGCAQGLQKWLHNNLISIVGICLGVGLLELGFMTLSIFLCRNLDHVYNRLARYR
Assay: FMAT competition binding assay against labeled CAS-006 on Ramos cells
Set-up: CD-37 found on Ramos cells (a B-lymphoblastoid cell line derived from a Burkitt lymphoma); endogenous in cells; host or cells: Ramos cells
Conditions: competition with FMAT Blue labeled CAS-006
Text: A competition assay was used to compare the binding affinity of different anti-CD37 specific small modular immunopharmaceutical (SMIP) molecules to CD-37 found on Ramos cells (a B-lymphoblastoid cell line derived from a Burkitt lymphoma). An SEC purified chimeric anti-CD37 SMIP molecule (CAS-006, SEQ ID NO:247) was labeled with the FMAT Blue® fluorescence dye (Applied Biosystems) and used as the standard to compete with purified unlabeled chimeric anti-CD37 SMIP molecule (positive control) and purified unlabeled humanized anti-CD37 SMIP test molecules. […] Briefly, the reagent FMAT Blue® labeled chimeric anti-CD37 SMIP molecule was diluted to 2 μg/ml in FACS blocking buffer and the purified protein samples (CAS-001 (SEQ ID NO:6), CAS-002 (SEQ ID NO:48), CAS-003 (SEQ ID NO:52), and CAS-024 (SEQ ID NO:253)) were serially diluted 1:2 to concentrations ranging from 50 μg/ml to 0.02 μg/ml. Ramos cells were harvested at 1,000 rpm for 5 minutes and resuspend in FACS blocking buffer at 4×10^6 cells/10 ml buffer. To each well of a black 96-well plate the following was added: 50 μl sample, 50 μl FMAT Blue® labeled chimeric anti-CD37 SMIP molecule, and 50 μl Ramos cells (4×10^4/well). The plates were incubated at room temperature for 30 min and read on an 8200 Cellular Detection System (Applied Biosystems) gated for middle cell size and low signal.
A competition assay as described in Example 4 was used to compare the binding affinity of different mouse-human hybrid anti-CD37 SMIP molecules compared to CAS-024 binding to Ramos cells. An SEC purified chimeric anti-CD37 SMIP molecule (CAS-006, SEQ ID NO:247) was labeled with the FMAT Blue® fluorescence dye (Applied Biosystems) and used as the standard to compete with purified unlabeled chimeric anti-CD37 SMIP molecule (CAS-006, positive control) and purified unlabeled humanized anti-CD37 SMIP test molecules—-CAS-002 (SEQ ID NO:48), CAS-003 (SEQ ID NO:52), CAS-014 (SEQ ID NO:251), CAS-017 (SEQ ID NO:252), and CAS-024 (SEQ ID NO:253).

B1: CAS-062: Vk3: CDR-H3 JH6 CDRL1 (T25A); CDRH3 (Y102V), SEQ ID NO:254 (protein)
chain: EIVLTQSPATLSLSPGERATLSCRASENVYSYLAWYQQKPGQAPRLLIYFAKTLAEGIPARFSGSGSGTDFTLTISSLEPEDFAVYYCQHHSDNPWTFGQGTKVEIKGGGGSGGGGSGGGGTGEVQLVQSGAEVKKPGESLKISCKGSGYSFTGYNMNWVRQMPGKGLEWMGNIDPYYGGTTYNRKFKGQVTISADKSISTAYLQWSSLKASDTAMYYCARSVGPMDVWGQGTTVTVSSDQ[sequence of human IgG1 Fc with changes omitted]
modifications: CD37 specific binding protein
B1 was tested, and the “binding affinity for CD37 compared with parent CAS-006” value was “detectable but severely decreased binding”.

B2: CAS-001: humanized anti-CD37 SMIP, Vk3: VH5-51, SEQ ID NO:6 (protein)
chain: MEAPAQLLFLLLLWLPDTTGEIVLTQSPATLSLSPGERATLSCRTSENVYSYLAWYQQKPGQAPRLLIYFAKTLAEGIPARFSGSGSGTDFTLTISSLEPEDFAVYYCQHHSDNPWTFGQGTKVEIKGGGGSGGGGSGGGGTGEVQLVQSGAEVKKPGESLKISCKGSGYSFTGYNMNWVRQMPGKGLEWMGNIDPYYGGTTYNRKFKGQVTISADKSISTAYLQWSSLKASDTAMYYCARSVGPMDYWGRGTLVTVSSDQ[sequence of human IgG1 Fc with changes omitted]
modifications: CD37 specific binding protein
In the case of B2, the “binding affinity for CD37 compared with parent CAS-006” value is reported as “significantly less than CAS-006 or CAS-024”.

B3: CAS-003: humanized anti-CD37 SMIP, Vk3: VH5 JH5a CDRL1 (T25A); CDRH3 (M99F; Y102S), SEQ ID NO:52 (protein)
chain: MEAPAQLLFLLLLWLPDTTGEIVLTQSPATLSLSPGERATLSCRASENVYSYLAWYQQKPGQAPRLLIYFAKTLAEGIPARFSGSGSGTDFTLTISSLEPEDFAVYYCQHHSDNPWTFGQGTKVEIKGGGGSGGGGSGGGGTGEVQLVQSGAEVKKPGESLKISCKGSGYSFTGYNMNWVRQMPGKGLEWMGNIDPYYGGTTYNRKFKGQVTISADKSISTAYLQWSSLKASDTAMYYCARSVGPFDSWGQGTLVTVSSDQ[sequence of human IgG1 Fc with changes omitted]
modifications: CD37 specific binding protein
For B3, the “binding affinity for CD37 compared with parent CAS-006” value was “lower binding affinity”.

B4: CAS-017: human-mouse hybrid anti-CD37 SMIP, Vk3: mVH, SSC-P hinge, SEQ ID NO:30 (252) (protein)
chain: MEAPAQLLFLLLLWLPDTTGEIVLTQSPATLSLSPGERATLSCRTSENVYSYLAWYQQKPGQAPRLLIYFAKTLAEGIPARFSGSGSGTDFTLTISSLEPEDFAVYYCQHHSDNPWTFGQGTKVEIKGGGGSGGGGSGGGGASAVQLQQSGPESEKPGASVKISCKASGYSFTGYNMNWVKQNNGKSLEWIGNIDPYYGGTTYNRKFKGKATLTVDKSSSTAYMQLKSLTSEDSAVYYCARSVGPMDYWGQGTSVTVSSS[sequence of human IgG1 Fc with changes omitted]
modifications: CD37 specific binding protein
With B4 the “binding affinity for CD37 compared with parent CAS-006” value was “higher than CAS-006”.

B5: CAS-014: mouse-human hybrid anti-CD37 SMIP, mVH: Vk3, SSC-P hinge, SEQ ID NO:24 (251) (protein)
chain: MEAPAQLLFLLLLWLPDTTGAVQLQQSGPESEKPGASVKISCKASGYSFTGYNMNWVKQNNGKSLEWIGNIDPYYGGTTYNRKFKGKATLTVDKSSSTAYMQLKSLTSEDSAVYYCARSVGPMDYWGQGTSVTVSSGGGGSGGGGSGGGGSGGGGSASEIVLTQSPATLSLSPGERATLSCRTSENVYSYLAWYQQKPGQAPRLLIYFAKTLAEGIPARFSGSGSGTDFTLTISSLEPEDFAVYYCQHHSDNPWTFGQGTKVEIKGSS[sequence of human IgG1 Fc with changes omitted]
modifications: CD37 specific binding protein
For B5, the “binding affinity for CD37 compared with parent CAS-006” value was “higher than CAS-006”.
